This is one part of the list. The full chains were built here from the parent and the listed change. Inactive controls read about 0.05.
B1: TEV protease; numbered along this chain (parent)
chain: MGESLFKGPRDYNPISSSICHLTNESDGHTTSLYGIGFGPFIITNKHLFRRNNGTLVVQSLHGVFKVKDTTTLQQHLVDGRDMIIIRMPKDFPPFPQKLKFREPQREERICLVTTNFQTKSMSSMVSDTSCTFPSGDGIFWKHWIQTKDGQCGSPLVSTRDGFIVGIHSASNFTNTNNYFTSVPKNFMELLTNQEAQQWVSGWRLNADSVLWGGHKVFMVKPEEPFQPVKEATQL

Variants of: B1
Assay: raw area under fraction-flipped curve 0-4 h after induction (AUC4h, not background-subtracted), DNA-recorder readout of cleavage of the substrate (dimensionless); higher = more cleavage of the substrate by the protease variant
Conditions: temperature: 34 °C; time window: 0-4 h after rhamnose induction
Method: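 In vivo DNA recorder in E. coli TOP10(DE3) ΔrhaA at 34 °C. Each TEVp single-site mutant (parent TEVp 0) is paired with a single-site variant of the 7-mer TEVs (canonical ENLYFQ|S). The substrate sits between flexible linkers in a Bxb1-sfGFP-TEVs-SsrA fusion, so cleavage stabilises Bxb1 and speeds flipping of a recombination array, read by NGS. The value is the raw area under the fraction-flipped curve over 0-4 h after rhamnose induction (AUC4h), with ≥20 reads per time point. It is not background-subtracted; inactive controls average about 0.047.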
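Note: Bxb1 expression induced with 0.2% (w/v) L-rhamnose at OD600 near 0.5, cultures sampled hourly, flipped fraction per protease–substrate barcode pair counted by paired-end Illumina sequencing.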

Row | Variant | area with substrate EALYFQS | area with substrate ECLYFQS | area with substrate EELYFQS | area with substrate EFLYFQS | area with substrate EHLYFQS | area with substrate EQLYFQS | area with substrate ESLYFQS | area with substrate EVLYFQS | area with substrate EYLYFQS | area with substrate EDLYFQS | area with substrate EGLYFQS | area with substrate EILYFQS | area with substrate EKLYFQS | area with substrate ELLYFQS | area with substrate EMLYFQS | area with substrate EPLYFQS | area with substrate ERLYFQS | area with substrate EWLYFQS | area with substrate ETLYFQS
1 | E107C | 0.0789 | 0.0823 | 0.101 | 0.0943 | 0.0867 | 0.102 | 0.0844 | 0.0874 | 0.125 |  |  |  |  |  |  |  |  |  | 
2 | E108C | 0.0688 | 0.0253 | 0.0787 |  |  | 0.0748 | 0.0787 | 0.0607 | 0.0699 | 0.0783 | 0.0531 | 0.0685 | 0.0769 | 0.0731 | 0.0731 | 0.088 | 0.0736 | 0.0596 | 
3 | E108H | 0.0952 | 0.0037 | 0.0699 |  | 0.0479 | 0.0816 | 0.0614 | 0.0405 | 0.0724 | 0.0858 | 0.0557 | 0.0747 | 0.0763 | 0.0388 | 0.0731 |  | 0.0799 |  | 0.0783
4 | E108L | 0.082 | 0.0573 |  | 0.0543 |  |  | 0.0565 | 0.0776 |  |  | 0.0849 | 0.0359 |  |  | 0.0694 |  | 0.0741 |  | 0.0686
5 | I110C | 0.138 | 0.101 | 0.102 |  |  | 0.0827 | 0.0996 |  | 0.125 | 0.115 | 0.0894 | 0.117 | 0.119 | 0.103 | 0.103 | 0.123 | 0.12 | 0.0976 | 0.124
6 | C111F | 0.143 | 0.0968 | 0.117 |  |  | 0.101 | 0.109 | 0.0976 | 0.101 | 0.132 | 0.0815 | 0.0656 | 0.118 | 0.0861 | 0.112 |  | 0.118 |  | 0.113
7 | C111V | 0.139 | 0.0984 | 0.127 | 0.107 | 0.152 | 0.109 | 0.0989 | 0.0979 | 0.112 |  | 0.0983 | 0.101 |  | 0.105 | 0.0956 | 0.121 | 0.074 |  | 0.122
8 | L112P | 0.0499 | 0.0565 |  |  | 0.0404 | 0.0669 | 0.0557 | 0.0617 |  | 0.0548 |  |  | 0.0563 | 0.068 | 0.0458 |  |  | 0.0458 | 0.052
9 | T114C | 0.103 | 0.079 | 0.106 |  | 0.0907 |  |  | 0.0729 |  |  | 0.084 | 0.0949 |  | 0.0584 | 0.103 |  |  |  | 0.117
10 | T115D | 0.0911 | 0.12 | 0.104 |  |  | 0.128 | 0.108 | 0.103 |  |  | 0.114 | 0.107 | 0.127 | 0.0941 | 0.118 | 0.0989 | 0.106 | 0.0649 | 
11 | T115S | 0.101 | 0.0936 |  | 0.0957 |  |  | 0.106 | 0.111 |  | 0.16 | 0.0506 | 0.0914 | 0.104 | 0.103 |  | 0.11 | 0.0836 |  | 0.122
12 | T115V | 0.109 | 0.0974 | 0.139 | 0.105 | 0.0824 | 0.131 | 0.0949 |  |  | 0.151 |  |  | 0.116 | 0.097 | 0.103 | 0.125 |  |  | 
13 | K120M | 0.0928 |  | 0.134 |  | 0.104 | 0.108 | 0.108 | 0.0657 | 0.0888 | 0.106 | 0.0811 | 0.0911 | 0.109 |  | 0.113 |  | 0.0822 | 0.0812 | 0.0958
14 | K120R | 0.132 | 0.122 | 0.139 | 0.12 | 0.112 | 0.117 | 0.102 | 0.0889 |  | 0.154 |  | 0.1 |  | 0.0815 |  | 0.132 | 0.136 | 0.0922 | 0.0855
15 | S121R | 0.145 | 0.111 | 0.141 |  | 0.125 | 0.0937 | 0.131 |  |  |  | 0.0915 | 0.0656 | 0.133 |  | 0.129 | 0.14 | 0.0942 | 0.129 | 
16 | M122C | 0.111 | 0.1 | 0.144 | 0.128 | 0.107 | 0.127 | 0.103 | 0.127 | 0.0965 | 0.101 | 0.0982 | 0.0964 | 0.116 | 0.0996 | 0.127 | 0.13 | 0.07 | 0.121 | 
17 | M122D | 0.128 | 0.113 |  |  | 0.126 | 0.14 | 0.102 | 0.0791 |  |  | 0.0881 | 0.0847 | 0.11 | 0.0969 | 0.0695 |  | 0.0887 | 0.101 | 
18 | M122S | 0.15 | 0.114 |  |  |  | 0.16 | 0.118 | 0.118 | 0.15 |  |  |  | 0.132 | 0.135 | 0.173 |  |  | 0.0983 | 0.139
19 | S123F | 0.131 | 0.0612 |  |  | 0.117 | 0.109 | 0.0948 | 0.101 | 0.117 | 0.146 | 0.105 |  |  | 0.0945 | 0.109 | 0.112 | 0.0937 |  | 
20 | V126S | 0.146 | 0.111 | 0.148 | 0.112 | 0.122 |  | 0.11 | 0.117 | 0.113 | 0.0794 | 0.112 | 0.105 |  | 0.098 | 0.0979 | 0.138 | 0.105 | 0.0993 | 0.134
21 | S127F | 0.156 | 0.0946 | 0.128 | 0.131 |  | 0.129 | 0.104 | 0.16 | 0.0999 | 0.0892 |  |  | 0.118 | 0.111 | 0.119 | 0.128 | 0.114 |  | 0.139
22 | S127V | 0.118 | 0.0728 | 0.141 |  | 0.06 | 0.119 | 0.113 | 0.13 |  | 0.0855 | 0.0874 | 0.103 | 0.138 | 0.109 |  | 0.121 | 0.13 |  | 0.11
23 | T129S | 0.098 | 0.107 | 0.12 | 0.0984 | 0.102 | 0.0996 | 0.124 | 0.0805 |  |  |  | 0.0853 | 0.123 | 0.0956 | 0.133 | 0.116 | 0.119 | 0.0583 | 0.103
24 | T129Y | 0.0818 | 0.0916 |  |  |  |  |  | 0.103 |  | 0.102 | 0.0933 | 0.0683 | 0.111 | 0.0954 | 0.102 | 0.0936 |  | 0.0791 | 0.0974
25 | S130L | 0.0816 | 0.0786 | 0.102 | 0.0725 |  |  | 0.0805 | 0.0786 | 0.0916 | 0.0846 | 0.0444 |  |  | 0.075 | 0.0793 | 0.0848 | 0.0667 |  | 
